Patent US20230295308A1, “ANTAGONISTIC BIPARATOPIC ANTIBODIES THAT SPECIFICALLY BIND FIBROBLAST GROWTH FACTOR RECEPTOR 2 AND METHODS OF USING SAME” (The Broad Institute, Inc., priority 2020, published 2023)

What was measured:
[1] = biological target: FGFR2 on SNU-16 gastric cancer cell line with FGFR2 amplification (UniProt P21802); assay: FACS on SNU-16 cells, % No. of cells with FITC+ [cont.]
[2] = biological target: FGFR2 on SNU-16 gastric cancer cell line with FGFR2 amplification (UniProt P21802); assay: row 'Kd (nM) (FACS)'; FACS on SNU-16 cells

B1: GAL-FR23 (antibody, V domains shown)
VH: QIQLVQSGPELKKPGETVKISCKASGYTFTDFGMNWMKQAPGKGFKWMGWINTSTGESTYADDFKGRFAFSLETSASTAYLQINNLKNEDMATYFCARNSYYGGSYGYWGQGTTLTVSS
VL: DIVMSQSPSSLAVSVGEKVTMK[no letters for about 80 residues]FGGGTKLEIK
[1]
  EC50 (read off the curve): 4 µg/mL
[2]
  Kd: 30.7 nM
